The compounds below were run against Recombinant heterodimeric HCV NS3/NS4A protease (strain 1a) (Hepatitis C virus genotype 1a, UniProt P27958) (assay: HCV continuous assay (spectrophotometric HCV NS3/NS4A serine protease inhibition assay)). Settings: Table 1; ranges of Ki* values in HCV continuous assay.
Assay type: biochemical, HCV (strain 1a)
Description: The present invention relates to novel HCV protease inhibitors. This utility can be manifested in their ability to inhibit the HCV NS3/NS4a serine protease.
Assay for HCV Protease Inhibitory Activity:
• Spectrophotometric Assay: Spectrophotometric assay for the HCV serine protease can be performed on the inventive compounds by following the procedure described by R. Zhang et al, Analytical Biochemistry, 270 (1999) 268-275, the disclosure of which is incorporated herein by reference. The assay based on the proteolysis of chromogenic ester substrates is suitable for the continuous monitoring of HCV NS3 protease activity. The substrates are derived from the P side of the NS5A-NS5B junction sequence (Ac-DTEDWX(Nva), where X=A or P) whose C-terminal carboxyl groups are esterified with one of four different chromophoric alcohols (3- or 4-nitrophenol, 7-hydroxy-4-methyl-coumarin, or 4-phenylazophenol). Illustrated below are the synthesis, characterization and application of these novel spectrophotometric ester substrates to high throughput screening and detailed kinetic evaluation of HCV NS3 protease inhibitors. Materials and Methods:
Materials: Chemical reagents for assay related buffers are obtained from Sigma Chemical Company (St. Louis, Mo.). Reagents for peptide synthesis were from Aldrich Chemicals, Novabiochem (San Diego, Calif.), Applied Biosystems (Foster City, Calif.) and Perseptive Biosystems (Framingham, Mass.). Peptides are synthesized manually or on an automated ABI model 431A synthesizer (from Applied Biosystems). UV/VIS Spectrometer model LAMBDA 12 was from Perkin Elmer (Norwalk, Conn.) and 96-well UV plates were obtained from Corning (Corning, N.Y.). The prewarming block can be from USA Scientific (Ocala, Fla.) and the 96-well plate vortexer is from Labline Instruments (Melrose Park, Ill.). […] Protein concentrations are determined by the Biorad dye method using recombinant HCV protease standards previously quantified by amino acid analysis. Prior to assay initiation, the enzyme storage buffer (50 mM sodium phosphate pH 8.0, 300 mM NaCl, 10% glycerol, 0.05% lauryl maltoside and 10 mM DTT) is exchanged for the assay buffer (25 mM MOPS pH 6.5, 300 mM NaCl, 10% glycerol, 0.05% lauryl maltoside, 5 μM EDTA and 5 μM DTT) utilizing a Biorad Bio-Spin P-6 prepacked column. • Substrate Synthesis and Purification: The synthesis of the substrates is done as reported by R. Zhang et al, (ibid.) and is initiated by anchoring Fmoc-Nva-OH to 2-chlorotrityl chloride resin using a standard protocol (K. Barlos et al, Int. J. Pept. Protein Res., 37 (1991), 513-520). The peptides are subsequently assembled, using Fmoc chemistry, either manually or on an automatic ABI model 431 peptide synthesizer. […] The combined filtrate and DCM wash is evaporated azeotropically (or repeatedly extracted by aqueous Na2CO3 solution) to remove the acid used in cleavage. The DCM phase is dried over Na2SO4 and evaporated.
The ester substrates are assembled using standard acid-alcohol coupling procedures (K. Holmber et al, Acta Chem. Scand., B33 (1979) 410-412). Peptide fragments are dissolved in anhydrous pyridine (30-60 mg/ml) to which 10 molar equivalents of chromophore and a catalytic amount (0.1 eq.) of para-toluenesulfonic acid (PTSA) were added. Dicyclohexylcarbodiimide (DCC, 3 eq.) is added to initiate the coupling reactions. Product formation is monitored by HPLC and can be found to be complete following 12-72 hour reaction at room temperature. Pyridine solvent is evaporated under vacuum and further removed by azeotropic evaporation with toluene.

SMILES	Ki [nM]
C=CCNC(=O)C(=O)C(CCC)NC(=O)[C@@H]1[C@@H]2[C@H](CN1C(=O)[C@@H](NC(=O)N[C@H](CN1Cc3ccccc3S1(=O)=O)C(C)(C)C)C1(C)CCCCC1)C2(C)C (some centres unmarked) [Compound 5260]	≤ 50
C=CCNC(=O)C(=O)C(CCCC)NC(=O)[C@@H]1[C@@H]2[C@H](CN1C(=O)[C@@H](NC(=O)N[C@H](CN1CCCNS1(=O)=O)C(C)(C)C)C(C)(C)C)C2(Cl)Cl (some centres unmarked) [Compound 5247]	≤ 50
C=CCNC(=O)C(=O)C(CCCC)NC(=O)[C@@H]1[C@@H]2[C@H](CN1C(=O)[C@@H](NC(=O)N[C@H](CN1Cc3ccccc3S1(=O)=O)C(C)(C)C)C(C)(C)C)C2(Cl)Cl (some centres unmarked) [Compound 5246]	≤ 50
C=CCNC(=O)C(=O)C(CCCC)NC(=O)[C@@H]1[C@@H]2[C@H](CN1C(=O)[C@@H](NC(=O)N[C@H](CN1Cc3sccc3S1(=O)=O)C(C)(C)C)C1(C)CCCCC1)C2(C)C (some centres unmarked) [Compound 5256]	≤ 50
C=CCNC(=O)C(=O)C(CC1CC1)NC(=O)[C@@H]1[C@@H]2[C@H](CN1C(=O)[C@@H](NC(=O)N[C@H](CN1CCN(C)S1(=O)=O)C(C)(C)C)C(C)(C)C)C2(C)C (some centres unmarked) [Compound 5158]	≤ 50
C=CCNC(=O)C(=O)C(CCC)NC(=O)[C@@H]1[C@@H]2[C@H](CN1C(=O)[C@@H](NC(=O)N[C@H](CN1Cc3sccc3S1(=O)=O)C(C)(C)C)C1CCCCC1)C2(C)C (some centres unmarked) [Compound 5177]	≤ 50
CC(C)(C)[C@H](NC(=O)N[C@H](CN1CCNS1(=O)=O)C(C)(C)C)C(=O)N1C[C@H]2[C@@H]([C@H]1C(=O)NC(CC1CCC1)C(=O)C(N)=O)C2(C)C (some centres unmarked) [Compound 5148]	≤ 50
CC(C)(C)[C@H](NC(=O)N[C@H](CN1CCN(CC2CC2)S1(=O)=O)C(C)(C)C)C(=O)N1C[C@H]2[C@@H]([C@H]1C(=O)NC(CC1CC1)C(=O)C(N)=O)C2(C)C (some centres unmarked) [Compound 5199]	≤ 50
C=CCNC(=O)C(=O)C(CCC)NC(=O)[C@@H]1[C@@H]2[C@H](CN1C(=O)[C@@H](NC(=O)N[C@H](CN1CCCS1(=O)=O)C(C)(C)C)C(C)(C)C)C2(C)C (some centres unmarked) [Compound 5115]	≤ 50
C#CCCC(NC(=O)[C@@H]1[C@@H]2[C@H](CN1C(=O)[C@@H](NC(=O)N[C@H](CN1CCCCS1(=O)=O)C(C)(C)C)C1CCCCC1)C2(C)C)C(=O)C(=O)NCC=C (some centres unmarked) [Compound 5188]	≤ 50
CC(C)(C)[C@H](NC(=O)N[C@H](CN1Cc2ccccc2S1(=O)=O)C(C)(C)C)C(=O)N1C[C@H]2[C@@H]([C@H]1C(=O)NC(CC1CCC1)C(=O)C(N)=O)C2(C)C (some centres unmarked) [Compound 5173]	≤ 50
C=CCNC(=O)C(=O)C(CC1CCC1)NC(=O)[C@@H]1[C@@H]2[C@H](CN1C(=O)[C@@H](NC(=O)N[C@H](CN1Cc3sccc3S1(=O)=O)C(C)(C)C)C1CCCCC1)C2(C)C (some centres unmarked) [Compound 5180]	≤ 50
C=CCNC(=O)C(=O)C(CCC)NC(=O)[C@@H]1[C@@H]2[C@H](CN1C(=O)[C@@H](NC(=O)N[C@H](CN1CCN(C(C)C)S1(=O)=O)C(C)(C)C)C(C)(C)C)C2(C)C (some centres unmarked) [Compound 5219]	≤ 50
C=CCNC(=O)C(=O)C(CC1CCC1)NC(=O)[C@@H]1[C@@H]2[C@H](CN1C(=O)[C@@H](NC(=O)N[C@H](CN1CCCCS1(=O)=O)C(C)(C)C)C(C)(C)C)C2(C)C (some centres unmarked) [Compound 5190]	≤ 50
C=CCNC(=O)C(=O)C(CCCC)NC(=O)[C@@H]1[C@@H]2[C@H](CN1C(=O)[C@@H](NC(=O)N[C@H](CN1Cc3ccccc3S1(=O)=O)C(C)(C)C)C1CCCCC1)C2(C)C (some centres unmarked) [Compound 5248]	≤ 50
C=CCNC(=O)C(=O)C(CCC)NC(=O)[C@@H]1[C@@H]2[C@H](CN1C(=O)[C@@H](NC(=O)N[C@H](CN1CCCCS1(=O)=O)C(C)(C)C)C(C)(C)C)C2(C)C (some centres unmarked) [Compound 5121]	≤ 50

Same assay, conditions: Table 2; ranges of Ki* values in HCV continuous assay

SMILES	Ki [nM]
C=CCNC(=O)C(=O)C(CC1CC1)NC(=O)[C@@H]1[C@@H]2[C@H](CN1C(=O)[C@@H](NC(=O)N[C@H](CN1CCCC1=O)C(C)(C)C)C(C)(C)C)C2(C)C (some centres unmarked) [Compound 5623]	≤ 50
C=CCNC(=O)C(=O)C(CC1CC1)NC(=O)[C@@H]1[C@@H]2[C@H](CN1C(=O)[C@@H](NC(=O)N[C@H](CN1CCCNC1=O)C(C)(C)C)C1Cc3ccccc3C1)C2(C)C (some centres unmarked) [Compound 5727]	≤ 50
CC(C)[C@@H](CN1CCOC1=O)NC(=O)N[C@H](C(=O)N1C[C@H]2[C@@H]([C@H]1C(=O)NC(CC1CC1)C(=O)C(N)=O)C2(C)C)C(C)(C)C (some centres unmarked) [Compound 5611]	≤ 50
C=CCNC(=O)C(=O)C(CCCC)NC(=O)[C@@H]1[C@@H]2[C@H](CN1C(=O)[C@@H](NC(=O)N[C@H](CN1CCCNC1=O)C(C)(C)C)C1Cc3ccccc3C1)C2(C)C (some centres unmarked) [Compound 5728]	≤ 50
C=CCNC(=O)C(=O)C(CC1CC1)NC(=O)[C@@H]1[C@@H]2[C@H](CN1C(=O)[C@@H](NC(=O)N[C@H](CN1C(=O)CCCC1=O)C(C)(C)C)C(C)(C)C)C2(C)C (some centres unmarked) [Compound 5670]	≤ 50
C=CCNC(=O)C(=O)C(CCCC)NC(=O)[C@@H]1[C@@H]2[C@H](CN1C(=O)[C@@H](NC(=O)N[C@H](CN1CCCNC1=O)C(C)(C)C)C(C)(C)C)C2(C)C (some centres unmarked) [Compound 5663]	≤ 50
CC1(C)CC(=O)N(C[C@@H](NC(=O)N[C@H](C(=O)N2C[C@H]3[C@@H]([C@H]2C(=O)NC(CC2CC2)C(=O)C(N)=O)C3(C)C)C2CCCCC2)C(C)(C)C)C(=O)C1 (some centres unmarked) [Compound 5786]	≤ 50
C=CCNC(=O)C(=O)C(CCCC)NC(=O)[C@@H]1[C@@H]2[C@H](CN1C(=O)[C@@H](NC(=O)N[C@H](CN1CCCCC1=O)C(C)(C)C)C1CCCCC1)C2(C)C (some centres unmarked) [Compound 5716]	≤ 50
CCCCC(NC(=O)[C@@H]1[C@@H]2[C@H](CN1C(=O)[C@@H](NC(=O)N[C@H](CN1C(=O)CC(C)(C)CC1=O)C(C)(C)C)C(C)(C)C)C2(C)C)C(=O)C(=O)NCC (some centres unmarked) [Compound 5758]	≤ 50
CC(C)(C)[C@H](NC(=O)N[C@H](CN1CCCC1=O)C(C)(C)C)C(=O)N1C[C@H]2[C@@H]([C@H]1C(=O)NC(CC1CCC1)C(=O)C(N)=O)C2(C)C (some centres unmarked) [Compound 5622]	≤ 50
C=CCNC(=O)C(=O)C(CC1CCC1)NC(=O)[C@@H]1[C@@H]2[C@H](CN1C(=O)[C@@H](NC(=O)N[C@H](CN1C(=O)CC(C)(C)CC1=O)C(C)(C)C)C1CCCCC1)C2(C)C (some centres unmarked) [Compound 5788]	≤ 50
C=CCNC(=O)C(=O)C(CC1CC1)NC(=O)[C@@H]1[C@@H]2[C@H](CN1C(=O)[C@@H](NC(=O)N[C@H](CN1CCCCC1=O)C(C)C)C(C)(C)C)C2(C)C (some centres unmarked) [Compound 5608]	> 50
C=CCNC(=O)C(=O)C(CC1CC1)NC(=O)[C@@H]1[C@@H]2[C@H](CN1C(=O)[C@@H](NC(=O)N[C@H](Cn1ccccc1=O)C(C)(C)C)C(C)(C)C)C2(C)C (some centres unmarked) [Compound 5655]	≤ 50
C=CCNC(=O)C(=O)C(CCC)NC(=O)[C@@H]1[C@@H]2[C@H](CN1C(=O)[C@@H](NC(=O)N[C@H](CN1CCOC1=O)C(C)(C)C)C(C)(C)C)C2(C)C (some centres unmarked) [Compound 5627]	≤ 50
C=CCNC(=O)C(=O)C(CC1CC1)NC(=O)[C@@H]1[C@@H]2[C@H](CN1C(=O)[C@@H](NC(=O)N[C@H](CN1CCCOC1=O)C(C)(C)C)C(C)(C)C)C2(C)C (some centres unmarked) [Compound 5702]	≤ 50
CCCCC(NC(=O)[C@@H]1[C@@H]2[C@H](CN1C(=O)[C@@H](NC(=O)N[C@H](CN1CCCCC1=O)C(C)(C)C)C1CCCCC1)C2(C)C)C(=O)C(=O)NCC (some centres unmarked) [Compound 5719]	≤ 50
CC(C)(C)[C@H](NC(=O)N[C@H](CN1C(=O)CCCC1=O)C(C)(C)C)C(=O)N1C[C@H]2[C@@H]([C@H]1C(=O)NC(CC1CC1)C(=O)C(N)=O)C2(C)C (some centres unmarked) [Compound 5674]	≤ 50
CC(C)(C)[C@H](NC(=O)N[C@H](Cn1ccccc1=O)C(C)(C)C)C(=O)N1C[C@H]2[C@@H]([C@H]1C(=O)NC(CC1CC1)C(=O)C(N)=O)C2(C)C (some centres unmarked) [Compound 5649]	≤ 50
C=CCNC(=O)C(=O)C(CCC)NC(=O)[C@@H]1[C@@H]2[C@H](CN1C(=O)[C@@H](NC(=O)NC1(CN3C(=O)c4ccccc4C3=O)CCCCC1)C(C)(C)C)C2(C)C (some centres unmarked) [Compound 5678]	≤ 50
